# Assay results from the supplement of paper PMC10037445.
# Whole data set: some 2,900 compounds, median “NF-kB SEAP reporter activity, fold change vs agonist alone” near 0.99, cut for the highest 2% near 2.6. This is one part of the list.
# What was measured:
# RAW-Dual [1] = assay: NF-kB SEAP reporter activity, fold change vs agonist alone; cytotoxicity flag (confluency mask): not cytotoxic; higher = enhanced NF-kB activity
# Procedure, shortened: (§1)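 Supernatant from RAW-Dual macrophages was read after 20 hours for IRF by QuantiLuc luminescence and for NF-κB by QuantiBlue absorbance at 620 nm. The cells (50,000 cells/well in DMEM, 384-well plates, 37 °C, 5% CO2) had received 50 nL of library stock by pin tool and, 1 h later, a PRR agonist. Reporter activity is expressed relative to agonist-alone wells as fold change, and wells were flagged cytotoxic if IncuCyte confluency was under 70% of agonist controls in both mask sets.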
# RAW-Dual [2] = assay: NF-kB SEAP reporter activity, fold change vs agonist alone; higher = enhanced NF-kB activity
# Procedure, shortened: as §1
# RAW-Dual [3] = assay: NF-kB SEAP reporter activity, fold change vs agonist alone; cytotoxicity flag (confluency mask): cytotoxic (confluency <70% of control); higher = enhanced NF-kB activity
# Procedure, shortened: as §1
# [4] = agonist: ODN 1826 (TLR9) 0.5 ug/mL
# [5] = agonist: Pam2CSK4 (TLR2/6) 0.1 ug/mL
# [6] = agonist: Pam3CSK4 (TLR2/1) 0.1 ug/mL
# [7] = library stock concentration (final ~1000-fold dilution): 10 mM, cytotoxicity flag (confluency mask): not cytotoxic, agonist: Imiquimod (TLR7) […]
# [8] = library stock concentration (final ~1000-fold dilution): 10 mM, cytotoxicity flag (confluency mask): not cytotoxic, agonist: MPLA (TLR4) […]
# [9] = library stock concentration (final ~1000-fold dilution): 10 mM water, cytotoxicity flag (confluency mask): not cytotoxic, agonist: Imiquimod (TLR7) […]
# [10] = library stock concentration (final ~1000-fold dilution): 10 mM water, cytotoxicity flag (confluency mask): not cytotoxic, agonist: MPLA (TLR4) […]
compound,measurement,setting,value
O.c1cnc2c(c1)ccc1cccnc12 (library stock concentration (final ~1000-fold dilution): 10 mM),NF-kB SEAP reporter activity,RAW-Dual [1]; agonist: LPS (TLR4) 0.1 ug/mL,2.48
same,NF-kB SEAP reporter activity,RAW-Dual [1]; [4],1.17
same,NF-kB SEAP reporter activity,RAW-Dual [1]; [5],1.44
same,NF-kB SEAP reporter activity,RAW-Dual [1]; [6],2.06
CC1(C)CC[C@]2(C(=O)O)CC[C@]3(C)[C@H](C(=O)C=C4[C@@]5(C)C=C(C#N)C(=O)C(C)(C)[C@@H]5CC[C@]43C)[C@@H]2C1,NF-kB SEAP reporter activity,RAW-Dual [2]; [7],1.62
same,NF-kB SEAP reporter activity,RAW-Dual [2]; [8],2.03
CC1(C)CC[C@]2(C(=O)O)CC[C@]3(C)[C@H](C(=O)C=C4[C@@]5(C)C=C(C#N)C(=O)C(C)(C)[C@@H]5CC[C@]43C)[C@@H]2C1 (library stock concentration (final ~1000-fold dilution): 10 mM),NF-kB SEAP reporter activity,RAW-Dual [1]; agonist: LPS (TLR4) 0.1 ug/mL,0.307
same,NF-kB SEAP reporter activity,RAW-Dual [1]; [4],1.54
same,NF-kB SEAP reporter activity,RAW-Dual [1]; [5],0.0752
same,NF-kB SEAP reporter activity,RAW-Dual [1]; [6],0.183
Cl.Cl.OCCOCCN1CCN(C(c2ccccc2)c2ccc(Cl)cc2)CC1 (stereo not drawn) (library stock concentration (final ~1000-fold dilution): 10 mM),NF-kB SEAP reporter activity,RAW-Dual [1]; agonist: LPS (TLR4) 0.1 ug/mL,1.34
same,NF-kB SEAP reporter activity,RAW-Dual [1]; [4],0.686
same,NF-kB SEAP reporter activity,RAW-Dual [1]; [5],1.08
same,NF-kB SEAP reporter activity,RAW-Dual [1]; [6],1.03
Cl.Cl.OCCOCCN1CCN(C(c2ccccc2)c2ccc(Cl)cc2)CC1 (stereo not drawn),NF-kB SEAP reporter activity,RAW-Dual [2]; [7],1.4
same,NF-kB SEAP reporter activity,RAW-Dual [2]; [8],0.983
O=C(O)C1(C(=O)O)CCC1.[NH2-].[NH2-].[Pt+2] (library stock concentration (final ~1000-fold dilution): 10 mM water),NF-kB SEAP reporter activity,RAW-Dual [1]; agonist: LPS (TLR4) 0.1 ug/mL,0.95
same,NF-kB SEAP reporter activity,RAW-Dual [1]; [4],1.01
same,NF-kB SEAP reporter activity,RAW-Dual [1]; [5],1.12
same,NF-kB SEAP reporter activity,RAW-Dual [1]; [6],1.01
O=C(O)C1(C(=O)O)CCC1.[NH2-].[NH2-].[Pt+2],NF-kB SEAP reporter activity,RAW-Dual [2]; [9],0.955
same,NF-kB SEAP reporter activity,RAW-Dual [2]; [10],1.01
O=C1CCC(N2Cc3c(OCc4ccc(CN5CCOCC5)cc4)cccc3C2=O)C(=O)N1 (stereo not drawn),NF-kB SEAP reporter activity,RAW-Dual [2]; [7],0.608
same,NF-kB SEAP reporter activity,RAW-Dual [2]; [8],0.916
O=C1CCC(N2Cc3c(OCc4ccc(CN5CCOCC5)cc4)cccc3C2=O)C(=O)N1 (stereo not drawn) (library stock concentration (final ~1000-fold dilution): 10 mM),NF-kB SEAP reporter activity,RAW-Dual [1]; agonist: LPS (TLR4) 0.1 ug/mL,1
same,NF-kB SEAP reporter activity,RAW-Dual [1]; [4],0.76
same,NF-kB SEAP reporter activity,RAW-Dual [1]; [5],1.1
same,NF-kB SEAP reporter activity,RAW-Dual [1]; [6],1.13
CCOC(=O)CC(=O)O (library stock concentration (final ~1000-fold dilution): 10 mM water),NF-kB SEAP reporter activity,RAW-Dual [1]; agonist: LPS (TLR4) 0.1 ug/mL,1.31
same,NF-kB SEAP reporter activity,RAW-Dual [1]; [4],1.09
same,NF-kB SEAP reporter activity,RAW-Dual [1]; [5],1.18
same,NF-kB SEAP reporter activity,RAW-Dual [1]; [6],1.03
CCOC(=O)CC(=O)O,NF-kB SEAP reporter activity,RAW-Dual [2]; [9],0.955
same,NF-kB SEAP reporter activity,RAW-Dual [2]; [10],1
C=C1C(=O)OC2C1CCC(C)=CCCC1(C)OC21 (stereo not drawn) (library stock concentration (final ~1000-fold dilution): 1 mM),NF-kB SEAP reporter activity,RAW-Dual [1]; agonist: LPS (TLR4) 0.1 ug/mL,0.783
same,NF-kB SEAP reporter activity,RAW-Dual [1]; [4],0.723
same,NF-kB SEAP reporter activity,RAW-Dual [1]; [5],0.814
same,NF-kB SEAP reporter activity,RAW-Dual [1]; [6],0.641
C=C1C(=O)OC2C1CCC(C)=CCCC1(C)OC21 (stereo not drawn),NF-kB SEAP reporter activity,"RAW-Dual [2]; library stock concentration (final ~1000-fold dilution): 1 mM, cytotoxicity flag (confluency mask): not cytotoxic, agonist: Imiquimod (TLR7) […]",0.92
same,NF-kB SEAP reporter activity,"RAW-Dual [2]; library stock concentration (final ~1000-fold dilution): 1 mM, cytotoxicity flag (confluency mask): not cytotoxic, agonist: MPLA (TLR4) […]",0.844
O=c1c(O)c(-c2ccc(O)c(O)c2)oc2cc(O)cc(O)c12,NF-kB SEAP reporter activity,RAW-Dual [2]; [7],1.15
same,NF-kB SEAP reporter activity,RAW-Dual [2]; [8],1.03
O=c1c(O)c(-c2ccc(O)c(O)c2)oc2cc(O)cc(O)c12 (library stock concentration (final ~1000-fold dilution): 10 mM),NF-kB SEAP reporter activity,RAW-Dual [1]; agonist: LPS (TLR4) 0.1 ug/mL,1.01
same,NF-kB SEAP reporter activity,RAW-Dual [1]; [4],0.678
same,NF-kB SEAP reporter activity,RAW-Dual [1]; [5],0.586
same,NF-kB SEAP reporter activity,RAW-Dual [1]; [6],0.902
O=C(Nc1ccc([N+](=O)[O-])cc1O)Nc1ccccc1Br (library stock concentration (final ~1000-fold dilution): 10 mM),NF-kB SEAP reporter activity,RAW-Dual [3]; agonist: LPS (TLR4) 0.1 ug/mL,2.98
same,NF-kB SEAP reporter activity,RAW-Dual [3]; [4],2.14
same,NF-kB SEAP reporter activity,RAW-Dual [3]; [5],0.989
same,NF-kB SEAP reporter activity,RAW-Dual [3]; [6],1.7
O=C(Nc1ccc([N+](=O)[O-])cc1O)Nc1ccccc1Br,NF-kB SEAP reporter activity,"RAW-Dual [2]; library stock concentration (final ~1000-fold dilution): 10 mM, cytotoxicity flag (confluency mask): cytotoxic (confluency <70% of control), agonist: Imiquimod (TLR7) […]",1.47
same,NF-kB SEAP reporter activity,"RAW-Dual [2]; library stock concentration (final ~1000-fold dilution): 10 mM, cytotoxicity flag (confluency mask): cytotoxic (confluency <70% of control), agonist: MPLA (TLR4) […]",1.48
O=C(c1cncc(Br)c1)N1CCC(N2CCCC2)CC1,NF-kB SEAP reporter activity,RAW-Dual [2]; [7],0.961
same,NF-kB SEAP reporter activity,RAW-Dual [2]; [8],1.04
O=C(c1cncc(Br)c1)N1CCC(N2CCCC2)CC1 (library stock concentration (final ~1000-fold dilution): 10 mM),NF-kB SEAP reporter activity,RAW-Dual [1]; agonist: LPS (TLR4) 0.1 ug/mL,1.52
same,NF-kB SEAP reporter activity,RAW-Dual [1]; [4],0.963
same,NF-kB SEAP reporter activity,RAW-Dual [1]; [5],0.983
same,NF-kB SEAP reporter activity,RAW-Dual [1]; [6],1.02
